Experimental findings from article PMC6212790 are described below.

The list shows a part of the results. At the low end of the ranking the order means little.

The target of this test is T1, GST-Rok (full length) (UniProt O34857).
T1 sequence: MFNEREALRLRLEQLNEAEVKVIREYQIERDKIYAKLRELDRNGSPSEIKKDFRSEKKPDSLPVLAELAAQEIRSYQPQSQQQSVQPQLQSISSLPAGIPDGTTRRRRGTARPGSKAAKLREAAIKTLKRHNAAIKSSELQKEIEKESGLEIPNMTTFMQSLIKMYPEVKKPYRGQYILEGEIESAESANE
Nature of the test: protein binding microarray.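 Note: rank score from −0.5 (least bound) to 0.5 (best bound).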 The settings on record: Rok is a gene silencer of Bacillus subtilis; high values mean tight binding; most listed sequences are background and not binding sites; double strand, one strand shown.
With CACCTGGC, the binding signal was -0.206 E-score.
The value for CCTTGGTC was -0.143 E-score.
The value for CGGTAGGC was -0.0402 E-score; that for AAGCTCTG was -0.319 E-score.
In the case of GAAAGTTC it was 0.0567 E-score; in that of ACCAATCT, 0.248 E-score; in that of TTGCTAAA, 0.0923 E-score.
For CACTGGCC, the binding signal is -0.198 E-score.
The value for TAGGGCGA was 0.108 E-score.
AACTTGTA returned a binding signal of 0.288 E-score.
In the case of GGCAATGA it was 0.0826 E-score; in that of AATATTCC, 0.131 E-score; in that of CGGGATCA, -0.166 E-score.
In the case of CAATGGGA it was 0.133 E-score; in that of GTAACATA, 0.295 E-score; in that of ATGCCGAA, -0.0575 E-score.
In the case of CACTAGGG it was -0.00554 E-score; in that of CTATCAAC, 0.182 E-score.
As to CAAATGGG, the binding signal was -0.178 E-score.
The value for ACCAGCAG was -0.262 E-score.
In the case of AAATCCAC it was 0.108 E-score.
In the case of CAGGGTGG it was -0.258 E-score.
As for CCCATAAA, the binding signal was -0.0815 E-score.
The value for ACAGCAAC was 0.0954 E-score; that for CGGCGCAC was -0.229 E-score.
Sequence CATTAAAA showed a binding signal of 0.0165 E-score.
The value for GTAATCAA was 0.0748 E-score; that for AGCTTGAC was -0.18 E-score; that for GACTTAAA was 0.0192 E-score.
The value for CTCATAAG was -0.129 E-score.
GCGAGGAA came in with a binding signal of -0.162 E-score.
The value for TATCCATA was 0.21 E-score.
The value for AATGCCGA was 0.0217 E-score; that for AGTGCGCG was -0.214 E-score; that for AAGACCTA was -0.0586 E-score.
Take CGGTGTAA: the binding signal was -0.126 E-score.
The value for AACACCCA was -0.0109 E-score.
In turn, AATTGATG displayed a binding signal of 0.217 E-score.
In the case of ATTATTTC it was 0.242 E-score; in that of CAGCGTTC, -0.286 E-score; in that of TCGATTCA, 0.0919 E-score.
The value for TACGGAAA was 0.0669 E-score; that for CTCGATTC was 0.147 E-score; that for ACTAAGCC was -0.0422 E-score.
The sequence CATTGTGC returned a binding signal of 0.138 E-score.
In the case of CTCAGCGA it was -0.164 E-score.
As to ACTTGGCG, the binding signal is -0.0706 E-score.
The value for ATACCCGC was -0.18 E-score.
The value for CCCACCGG was -0.265 E-score; that for CGGGCTAA was -0.208 E-score; that for CCTAGCTC was -0.133 E-score.
In the case of ACTACAGG it was 0.148 E-score; in that of ACCAGTCG, -0.155 E-score.
For the sequence CGGACGGA, the binding signal was -0.335 E-score.
The value for GCTATGAA was 0.135 E-score; that for CATATCAG was 0.0525 E-score; that for ATCCCCGC was -0.179 E-score.
In the case of GGGCAGAA it was -0.117 E-score; in that of AAGTGAAC, -0.182 E-score; in that of ACTGCAGT, 0.296 E-score.
In the case of AGTGTCTG it was -0.0948 E-score; in that of AACATTTC, 0.109 E-score; in that of ACCTGCAT, 0.00779 E-score.
Regarding AAGGAGGA, the binding signal was -0.257 E-score.
The sequence CATCGGCA yielded a binding signal of -0.205 E-score.
In turn, TGTGCCAA registered a binding signal of -0.162 E-score.
The value for CAGACACA was -0.0772 E-score; that for AGGCCTGG was -0.28 E-score.
In turn, ATAGTTAG displayed a binding signal of 0.319 E-score.
In the case of GTTCGCCA it was 0.0452 E-score.
In the case of ATCCCCGA, the binding signal was -0.0219 E-score.
The value for AGAGCGCG was -0.0123 E-score; that for GAGCGCTA was -0.0754 E-score; that for CCGCTACA was 0.0266 E-score.
AATAGTTC: the binding signal came out at 0.333 E-score.
On to GGTGTGTA, for which the binding signal came out at 0.271 E-score.
The value for GACCGAAC was -0.182 E-score; that for AGGGCGAA was -0.0482 E-score; that for CCTCTCGC was -0.252 E-score.
In the case of CTCATAAA it was 0.104 E-score; in that of CGAAGCGC, -0.157 E-score.
The value for ATCTTCAG was 0.0268 E-score; that for GAGACCTA was -0.112 E-score; that for ACCCGAAC was -0.125 E-score.
As for AGCTCTAG, the binding signal is -0.0656 E-score.
Turning to ACTAAACG, the binding signal came out at 0.131 E-score.
The value for GCGTCCAC was -0.296 E-score; that for GTTTGCTA was 0.219 E-score.
The value for TCCCCTAA was -0.203 E-score; that for CAAATGAG was -0.123 E-score; that for ATCTGGAC was 0.0182 E-score.
The value for ATATGTCA was 0.176 E-score.
AGGCCTGA returned a binding signal of -0.23 E-score.
AATTAGTA displayed a binding signal of 0.416 E-score.
The value for AACAAGTA was 0.284 E-score; that for ATTGCAGC was -0.119 E-score; that for CTGCACCC was -0.345 E-score.
Take AAGGCCGT: the binding signal is -0.26 E-score.
In the case of TAAGGCTA it was -0.0654 E-score.
The sequence AACAACCA showed a binding signal of 0.0337 E-score.
In the case of ATCGTCTC it was -0.0382 E-score; in that of AGAGAAAT, 0.223 E-score.
In the case of AACAGCAG it was 0.00609 E-score; in that of CACCCACA, -0.125 E-score; in that of AGGGGAAT, -0.365 E-score.
In the case of ACACGGAC it was -0.115 E-score.
Turning to TCCCCCCA, the binding signal was -0.263 E-score.
The value for ATGCGACC was -0.31 E-score.
In the case of GAGTCGAC it was -0.151 E-score.
The value for CCGATCCG was -0.19 E-score.
